Assay results published in PubChem BioAssay AID504466 (National Center for Advancing Translational Sciences (NCATS), 2011).
About 4,200 (1.3%) of roughly 330,000 compounds were called active. The shares of active, inactive and inconclusive entries below differ from those in the screen. The call rests on the fitted dose curve; in most records, active means well fitted activation curve with a large enough effect; inconclusive means small, poorly fitted or top-dose-only effect; inactive means no such curve, though single readings can be large or run the other way. Potencies beside an inconclusive call are fits to weak or partial responses and may not hold up.

experiment: qHTS screen for small molecules that induce genotoxicity in human embryonic kidney (HEK293T) cells expressing luciferase-tagged ELG1; conditions: HEK293T ELG1-luciferase reporter, luminescence, 16 h; series mostly up to 46 µM; further: nearly all actives have a fitted effect of over 60% in size
Outline: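 HEK293T cells expressing luciferase-tagged ELG1 were treated with compound or DMSO for 16 hr at 37°C. Luciferase activity was then read after 30 min with ONE-Glo at room temperature; rising signal flags genetic stress.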
Potency means the concentration at half of the fitted maximal effect; tags describe the fitted curve by direction and shape.

Question: Which Potency does the source give for `O=C(CC1SCCNC1=O)Nc1cccc(Cl)c1` (configuration not stated) here?
Answer: inconclusive: 23.1 µM [activator, partial curve, poor fit]

Question: Which Potency does the source give for `COc1ccc2c(c1OC)C(=O)N(c1ccccn1)C2` here?
Answer: active: 9.2 µM

Question: For `COCCCN1CN=C(Nc2nc3ccccc3o2)NC1`, which Potency is on record?
Answer: inconclusive: 23.1 µM [activator, partial curve, poor fit]

Question: Which Potency does the source give for `CCCc1ccc(C(=O)O/N=C(\N)c2ccccn2)cc1` here?
Answer: active: 0.411 µM

Question: For `COc1ccc(C(=O)OCC#CCSc2nnc(-c3cccc4ccccc34)o2)cc1`, which Potency is on record?
Answer: inactive

Question: For `COc1ccc2nc(NC(=O)c3ccc(Br)s3)sc2c1`, which Potency is on record?
Answer: active: 2.82 µM

Question: With `CCOC(=O)c1cnc(-n2nc(C)cc2C)nc1Nc1cccc(C(=O)O)c1` as the compound, how does the Potency read?
Answer: inconclusive: 11.2 µM [activator, partial curve, poor fit]

Question: With `Nc1cc2c3c(cccc3c1)C(=O)N(CCN1CCCC1)C2=O` as the compound, how does the Potency read?
Answer: inconclusive: 7.3 µM [activator, partial curve, poor fit]

Question: Which Potency does the source give for `COC(=O)c1cc(S(=O)(=O)N2CCN(C(=O)c3ccco3)CC2)cn1C` here?
Answer: inactive

Question: Which Potency does the source give for `Cc1ccc(-n2c(C)cc3c2CCCC3=O)cc1` here?
Answer: inconclusive: 17.8 µM [activator, single point]

Question: Which Potency does the source give for `O=C(c1cc(-c2ccc3c(c2)OCO3)on1)N1CCN(c2ccccc2)CC1` here?
Answer: inconclusive: 5.17 µM [activator, partial curve]

Question: With `CC(C)(C)NC(=O)C(=O)NNC(=O)c1cccc(F)c1` as the compound, how does the Potency read?
Answer: inconclusive: 20.6 µM [activator, partial curve, poor fit]

Question: Which Potency does the source give for `O=C(COC(=O)c1ccc[nH]c1=O)NCCc1ccc(Cl)cc1Cl` here?
Answer: inconclusive: 1.64 µM [activator, full curve, poor fit]

Question: With `COc1ccc(OC)c(C(=O)c2coc3ccc(O)cc23)c1` as the compound, how does the Potency read?
Answer: inconclusive: 20.6 µM [activator, single point]

Question: With `Cc1ccc(Cn2cnc3ccccc32)cc1C` as the compound, how does the Potency read?
Answer: inconclusive: 29.1 µM [activator, partial curve, poor fit]

Question: For `CC1CCC2(CC1)NC(=O)N(CC(=O)Nc1ccc3c(c1)OCCO3)C2=O` (configuration not stated), which Potency is on record?
Answer: inconclusive: 18.3 µM [activator, partial curve, poor fit]

Question: Which Potency does the source give for `COc1ccc(NC(=O)CN(C)C(=O)CCCc2nc3ccccc3s2)cc1` here?
Answer: inconclusive: 25.9 µM [activator, partial curve, poor fit]

Question: With `O=C(Nc1ccc2nc3n(c(=O)c2c1)CCCCC3)c1ccccn1` as the compound, how does the Potency read?
Answer: inconclusive: 5.8 µM [activator, partial curve]

Question: Which Potency does the source give for `COc1ccccc1/C=C/C(=O)Nc1ccc2c(c1)OCCO2` here?
Answer: inconclusive: 1.84 µM [activator, partial curve]

Question: With `Cc1ccc2nc(-c3ccc4c(c3)NC(=O)CO4)cn2c1` as the compound, how does the Potency read?
Answer: inconclusive: 8.2 µM [activator, partial curve]

Question: With `Cn1c(N)c(C(=O)COC(=O)c2ccnc3ccccc23)c(=O)n(C)c1=O` as the compound, how does the Potency read?
Answer: inconclusive: 0.517 µM [activator, single point]

Question: Which Potency does the source give for `CCN(CC)CCN(C(=O)c1ccc2c(c1)OCCO2)c1nc2cc3c(cc2s1)OCO3` here?
Answer: inactive

Question: Which Potency does the source give for `COc1ccc(-c2csc(NC3OC(=O)c4ccccc43)n2)cc1` (configuration not stated) here?
Answer: inconclusive: 16.4 µM [activator, partial curve, poor fit]

Question: For `CC(/C=C/c1ccccc1)=N\NC(=O)Cn1nc(C)cc1C`, which Potency is on record?
Answer: inactive

Question: Which Potency does the source give for `O=C(CSCc1ccccc1)Nc1ccc(F)c(F)c1` here?
Answer: inconclusive: 25.9 µM [activator, partial curve, poor fit]

Question: Which Potency does the source give for `O=C(CN1CCN(C(=O)c2ccco2)CC1)Nc1ccc2c(c1)OCCO2` here?
Answer: inconclusive: 16.4 µM [activator, partial curve, poor fit]

Question: For `C1CCC(c2nn3c(-c4n[nH]c5c4CCC5)nnc3s2)CC1`, which Potency is on record?
Answer: inactive

Question: For `N#Cc1ccc(CSc2nnc(NC(=O)c3ccc4ncsc4c3)s2)cc1`, which Potency is on record?
Answer: inconclusive: 23.1 µM [activator, partial curve, poor fit]

Question: For `COc1ccc2nc(NC(=O)CSc3nnc(C)n3N)sc2c1`, which Potency is on record?
Answer: active: 7.3 µM

Question: Which Potency does the source give for `CC(=O)Nc1ccc(NC(=O)CCn2c(=S)oc3ccccc32)cc1` here?
Answer: inconclusive: 29.1 µM [activator, single point]

Question: For `CSc1ccccc1NC(=O)c1cc2ncc(Br)cn2n1`, which Potency is on record?
Answer: inconclusive: 7.3 µM [activator, partial curve]

Question: Which Potency does the source give for `O=C(CSc1nnnn1-c1ccccc1Cl)Nc1ccc2c(c1)OCCO2` here?
Answer: inconclusive: 20.6 µM [activator, single point]

Question: Which Potency does the source give for `COc1cc(/C=N/NC(=O)c2ccccc2)ccc1O` here?
Answer: inconclusive: 23.1 µM [activator, partial curve, poor fit]

Question: Which Potency does the source give for `Cc1ccc(-n2c(C)cc(C(=O)CN3CCOCC3)c2C)cc1` here?
Answer: inactive

Question: For `O=c1oc2ccccc2cc1-c1csc(Cc2nc(-c3ccc(Br)cc3)cs2)n1`, which Potency is on record?
Answer: inconclusive: 6.51 µM [activator, full curve]

Question: With `Cn1c(=NC(=O)C2CC2)sc2cc(F)cc(F)c21` as the compound, how does the Potency read?
Answer: inconclusive: 16.4 µM [activator, partial curve, poor fit]

Question: With `CCCc1[nH]n(-c2ccc([N+](=O)[O-])cc2)c(=O)c1C=NCCc1ccc(OC)c(OC)c1` as the compound, how does the Potency read?
Answer: inconclusive: 29.1 µM [activator, partial curve, poor fit]

Question: Which Potency does the source give for `CCOC(=O)C1=C(C)NC(C)=C(C(=O)OCC)C1C(=O)OCC(=O)N1c2ccccc2CC1C` (configuration not stated) here?
Answer: inactive

Question: With `Cc1ccc(/C=N/NC(=O)c2cccs2)cc1[N+](=O)[O-]` as the compound, how does the Potency read?
Answer: inactive

Question: For `Cc1cccc(N=Nc2cnc(N)s2)c1`, which Potency is on record?
Answer: inconclusive: 25.9 µM [activator, partial curve, poor fit]

Question: Which Potency does the source give for `CN(C)c1oc(COc2ccccc2F)nc1C#N` here?
Answer: inconclusive: 29.1 µM [activator, single point]

Question: Which Potency does the source give for `O=C(CN1CCN(c2cccc(C(F)(F)F)c2)CC1)NCc1ccccc1` here?
Answer: inactive

Question: With `Cc1c(C#N)c(N)nc2c3c(sc12)NC(=O)CC3c1ccc(Cl)cc1` (configuration not stated) as the compound, how does the Potency read?
Answer: inconclusive: 13 µM [activator, partial curve, poor fit]

Question: Which Potency does the source give for `COc1ccccc1C(=O)CC(=O)c1ccccc1` here?
Answer: inconclusive: 13 µM [activator, partial curve, poor fit]

Question: With `CC(C)CCOc1ccc(C(=O)NCCC(=O)N2CCOCC2)cc1` as the compound, how does the Potency read?
Answer: inconclusive: 20.6 µM [activator, single point]

Question: Which Potency does the source give for `O=C(CSc1nc2ncccc2[nH]1)NC1CCCC1` here?
Answer: inactive

Question: For `Brc1c(-c2ccc3c(c2)OCO3)nc2ncccn12`, which Potency is on record?
Answer: inconclusive: 23.1 µM [activator, partial curve, poor fit]

Question: With `CCCOc1ccc(-c2nnc(N)s2)cc1` as the compound, how does the Potency read?
Answer: active: 18.4 µM

Question: With `O=c1cc(-c2cccs2)oc2ccc(Cl)cc12` as the compound, how does the Potency read?
Answer: inconclusive: 10.3 µM [activator, partial curve]

Question: Which Potency does the source give for `O=C(Nc1nnc(-c2cc(Cl)ccc2Cl)o1)c1ccco1` here?
Answer: inconclusive: 5.17 µM [activator, partial curve, poor fit]

Question: For `COc1ccc2nc(NC(=O)CSc3nc4ccccc4o3)sc2c1`, which Potency is on record?
Answer: inconclusive: 11.2 µM [activator, partial curve, poor fit]

Question: For `O=C(CN(c1ccc(F)cc1)S(=O)(=O)c1ccc2c(c1)OCCO2)NCc1ccccc1`, which Potency is on record?
Answer: inactive

Question: For `CC(=O)c1sc(NC(=O)c2cccc(N3C(=O)CCC3=O)c2)nc1-c1ccccc1`, which Potency is on record?
Answer: inactive

Question: With `C#CCNc1ccc(C(=O)OCC)cc1` as the compound, how does the Potency read?
Answer: inconclusive: 23.1 µM [activator, partial curve, poor fit]

Question: Which Potency does the source give for `CNC(=O)c1c(NC(=O)CCS(=O)(=O)c2ccc(C)cc2)sc(C)c1C` here?
Answer: inactive

Question: For `O=C(Cc1sc(Nc2ccccc2)nc1-c1ccccc1)NCc1ccccn1`, which Potency is on record?
Answer: inconclusive: 20.6 µM [activator, single point]

Question: With `Cc1ccc2cc(C#N)c(NCCNC(=S)NCCCN(C)C)nc2c1C` as the compound, how does the Potency read?
Answer: inconclusive: 23.1 µM [activator, single point]

Question: Which Potency does the source give for `COc1ccc(-c2nnc(NC(=O)C(C)C)s2)c(OC)c1` here?
Answer: inconclusive: 9.2 µM [activator, partial curve]

Question: For `Cc1ccc(-n2c(C)cc(C(=O)CSc3nnc4ccccn34)c2C)cc1`, which Potency is on record?
Answer: active: 5.17 µM

Question: Which Potency does the source give for `CCN1C(=O)c2cccc3c(S(=O)(=O)Nc4ccccn4)ccc1c23` here?
Answer: active: 20.6 µM

Question: Which Potency does the source give for `N/C(Cn1cncn1)=N\NC(=O)C(=O)Nc1cccc(C(F)(F)F)c1` here?
Answer: inactive

Question: Which Potency does the source give for `COc1cc(/C=N/NC(=O)CSc2ccccn2)ccc1OC(C)C` here?
Answer: inconclusive: 23.1 µM [activator, partial curve, poor fit]

Question: Which Potency does the source give for `Cc1ccc(C(=O)Nc2nnc(C3CCCCC3)s2)o1` here?
Answer: active: 3.66 µM

Question: For `CCOC(=O)C1=C(CC)OC(N)=C(C#N)C1c1ccsc1` (configuration not stated), which Potency is on record?
Answer: inactive

Question: For `CCOc1ccc(NC(=O)NCc2cccn2C)cc1`, which Potency is on record?
Answer: inconclusive: 16.4 µM [activator, partial curve, poor fit]

Question: With `CCOC(=O)c1c(C)[nH]c(C(C)=NNC(=O)c2cccs2)c1C` as the compound, how does the Potency read?
Answer: inconclusive: 8.2 µM [activator, partial curve]

Question: For `Cc1cccc(NC(=S)NCc2ccccc2)c1C`, which Potency is on record?
Answer: inactive

Question: Which Potency does the source give for `CCOC(=O)c1sc(NC(=O)c2ccc(Br)o2)cc1C` here?
Answer: active: 2.31 µM

Question: With `O=C(Nc1nc2cc3c(cc2s1)OCO3)C1=COCCO1` as the compound, how does the Potency read?
Answer: active: 0.411 µM

Question: With `Cc1ccc(N2CC(C(=O)OCC(=O)Nc3ccc(Cl)cc3)CC2=O)cc1` (configuration not stated) as the compound, how does the Potency read?
Answer: inactive

Question: Which Potency does the source give for `COc1ccc(-c2noc(-c3ccc4c(c3)OCO4)n2)cc1` here?
Answer: inconclusive: 2.31 µM [activator, full curve, poor fit]

Question: With `O=C(Nc1ccc(Cl)cc1)c1ccc2c(c1)OCO2` as the compound, how does the Potency read?
Answer: inconclusive: 1.84 µM [activator, full curve]
